Experimental data: PMC4336329 (PLoS ONE, 2015)
About 2,200 (0.71%) of roughly 310,000 compounds showed an effect of 50% or more. Effects have a minus sign here. The list shows a part of the results.

Target: human ether-à-go-go-related gene (hERG) potassium channel (human, UniProt Q12809)
Test: primary screen, population patch clamp on CHO cells stably expressing hERG

Chain of human ether-à-go-go-related gene (hERG) potassium channel (Q12809 whole entry, looked up): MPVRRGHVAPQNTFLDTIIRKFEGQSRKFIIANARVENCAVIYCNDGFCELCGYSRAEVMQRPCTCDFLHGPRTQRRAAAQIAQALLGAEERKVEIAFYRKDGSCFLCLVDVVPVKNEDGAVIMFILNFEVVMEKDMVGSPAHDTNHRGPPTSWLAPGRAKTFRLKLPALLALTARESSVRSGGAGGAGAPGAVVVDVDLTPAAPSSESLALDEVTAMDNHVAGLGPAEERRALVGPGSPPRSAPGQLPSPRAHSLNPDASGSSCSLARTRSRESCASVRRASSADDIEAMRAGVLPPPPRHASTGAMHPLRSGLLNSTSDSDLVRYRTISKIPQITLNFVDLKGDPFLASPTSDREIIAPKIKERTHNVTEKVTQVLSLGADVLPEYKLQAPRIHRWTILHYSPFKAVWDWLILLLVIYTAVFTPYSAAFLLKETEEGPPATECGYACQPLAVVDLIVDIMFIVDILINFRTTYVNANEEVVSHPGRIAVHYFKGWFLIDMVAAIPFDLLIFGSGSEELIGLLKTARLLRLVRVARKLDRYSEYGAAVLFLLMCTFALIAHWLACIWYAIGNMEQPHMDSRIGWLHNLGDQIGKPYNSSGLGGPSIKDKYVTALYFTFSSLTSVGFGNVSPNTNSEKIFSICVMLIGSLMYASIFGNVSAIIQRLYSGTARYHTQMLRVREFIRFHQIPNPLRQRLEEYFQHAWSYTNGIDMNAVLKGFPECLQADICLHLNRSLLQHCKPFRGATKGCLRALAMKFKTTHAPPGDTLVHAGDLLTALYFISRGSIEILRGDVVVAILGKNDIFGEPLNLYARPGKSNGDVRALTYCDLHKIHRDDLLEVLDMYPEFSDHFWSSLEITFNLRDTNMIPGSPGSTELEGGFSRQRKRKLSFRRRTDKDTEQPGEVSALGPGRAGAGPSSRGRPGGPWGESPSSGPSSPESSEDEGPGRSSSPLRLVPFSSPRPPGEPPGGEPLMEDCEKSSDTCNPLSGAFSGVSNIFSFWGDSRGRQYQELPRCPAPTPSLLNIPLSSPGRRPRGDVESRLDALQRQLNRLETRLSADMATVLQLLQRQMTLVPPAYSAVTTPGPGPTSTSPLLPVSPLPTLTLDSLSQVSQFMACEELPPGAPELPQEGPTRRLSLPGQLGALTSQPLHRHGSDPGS

Compared with Cc1ccc(Cn2ncc3c(NCCN(C)C)ncnc32)cc1, Cc1cccc(NC(=S)N(CCc2ccncc2)C(C)C)c1C is higher in “hERG current change (%, negative = inhibition) at 1uM” value: 1.2% for the first, 6.18% for the second.

Compared with CNC(=O)C12CC3CC(C1)CC(c1ccc(C)cc1)(C3)C2, COc1ccc(N2CC(C(=O)N[C@@H](CC(C)C)C(=O)NC3CCCCC3)CC2=O)cc1 (stereo partly shown) is higher in “hERG current change (%, negative = inhibition) at 1uM” value: 10% for the first, 13.6% for the second.

Going from CCOC(=O)c1c(C)[nH]c(C(=O)COC(=O)CCC(=O)c2ccc3c(c2)OCCO3)c1C to CCOC(=O)C1=C(C)N=c2s/c(=C\c3cccc(OCC(=O)O)c3)c(=O)n2C1c1ccccc1 (stereo not shown), the “hERG current change (%, negative = inhibition) at 1uM” value rises from -2.46% to 7.53%.

Going from C/C(=N\NC(=O)CSc1nc(C)[nH]c1[N+](=O)[O-])c1ccc(F)cc1 to CCOC(=O)CN(C(=O)CSc1nnc(CNc2ccc(F)cc2)n1CC)c1ccc(F)cc1, the “hERG current change (%, negative = inhibition) at 1uM” value falls from 9.08% to -6.17%.

First: COCCNC(=O)C(c1ccc(F)cc1)N(C(=O)CCC(=O)Nc1ccccn1)c1cccc(C)c1 (stereo not shown)
Second: COc1ccccc1CNC(=O)CCNS(=O)(=O)c1cccc2nonc12
The “hERG current change (%, negative = inhibition) at 1uM” value of the first is lower: 12.8% for the first, 14.1% for the second.

Going from CCOC(OCC)P(=O)(C(C)C)C(C)C to CCCCn1c(N)c(N(CC(C)C)C(=O)C(C)SCc2nc3sc(C)c(C)c3c(=O)[nH]2)c(=O)[nH]c1=O (stereo not shown), the “hERG current change (%, negative = inhibition) at 1uM” value rises from 4.5% to 13.5%.

Compared with Cc1nnc(SCC2=C(C(=O)O)N3C(=O)C(NC(=O)C(C)n4nc(C(F)(F)F)cc4C)C3SC2)s1 (stereo not shown), Cc1cc(C)c2nc(/N=C(\N)NC(=O)Nc3ccccc3)nc(C)c2c1 is lower in “hERG current change (%, negative = inhibition) at 1uM” value: 14% for the first, 3.38% for the second.

Compared with CCC(=O)c1ccc(/C=C/c2nc3ccccc3n2C)o1, Cc1ccc(S(=O)(=O)CCc2nc3ccccc3s2)cc1 is higher in “hERG current change (%, negative = inhibition) at 1uM” value: 2.57% for the first, 8.2% for the second.

First: C=CCn1c(SCC(=O)NNC(=O)Nc2cccc(Cl)c2)nnc1-c1ccccc1
Second: O=C(O)CCC(=O)NC(c1ccccc1)c1ccccc1
The “hERG current change (%, negative = inhibition) at 1uM” value of the first is lower: 6.04% for the first, 6.14% for the second.

First: c1ccc(-c2ccc(OCCOCCn3cncn3)cc2)cc1
Second: O=C(COc1cc(O)c2c(=O)cc(-c3ccccc3)oc2c1)c1ccccc1
The “hERG current change (%, negative = inhibition) at 1uM” value of the first is lower: 6.91% for the first, 7.59% for the second.

Compared with O=C(O)C(=O)O.O=C(c1cccc(F)c1)N1CCN(Cc2c[nH]c3ccccc23)CC1, O=C(COc1ccccc1[N+](=O)[O-])Nc1ccc(N2CCN(C(=O)c3cccs3)CC2)cc1 is higher in “hERG current change (%, negative = inhibition) at 1uM” value: 3.32% for the first, 3.93% for the second.

Compared with COc1ccc(S(=O)(=O)Nc2ccc(N3CCOCC3)cc2)cc1[N+](=O)[O-], COc1ccc(C)c(S(=O)(=O)Nc2ccc(OCC(=O)O)cc2)c1 is higher in “hERG current change (%, negative = inhibition) at 1uM” value: 11.7% for the first, 15.5% for the second.

Going from FC(F)(F)c1cccc(CN2CCCCCC2)c1 to O=C(CSc1ncn[nH]1)Nc1cc(S(=O)(=O)N2CCCC2)ccc1Cl, the “hERG current change (%, negative = inhibition) at 1uM” value falls from 1.95% to -1.19%.

Compared with CC1=C(C)C(=O)N(c2ccccn2)C1=O, Cc1nc2ccccc2c2c1C(=O)N(c1ccc(C(=O)O)cc1)C2=O is lower in “hERG current change (%, negative = inhibition) at 1uM” value: 11.4% for the first, 7.18% for the second.

Compared with O=C(c1ccc(COc2c(F)c(F)c(F)c(F)c2F)o1)N1CCOCC1, CN(C)S(=O)(=O)c1ccc2c(c1)c(=O)c(C(=O)N1CCOCC1)cn2C is higher in “hERG current change (%, negative = inhibition) at 1uM” value: -0.4% for the first, 7.71% for the second.

First: CCn1c(CCc2nc3ccccc3[nH]2)n[nH]c1=S
Second: CC(C)Cn1c(-c2csc3ccccc23)n[nH]c1=S
The “hERG current change (%, negative = inhibition) at 1uM” value of the first is higher: 33.6% for the first, 4.43% for the second.

Compared with COc1ccc(N(C(=O)C(C)C)S(=O)(=O)c2ccc3ccccc3c2)cc1, COc1ccc(S(=O)(=O)N(c2onc(C)c2Cl)S(=O)(=O)c2ccc(OC)cc2)cc1 is higher in “hERG current change (%, negative = inhibition) at 1uM” value: 7.49% for the first, 15.1% for the second.

First: O=C(COC(=O)CCc1nc2ccccc2s1)NC(=O)NCc1ccco1
Second: CCCC(=O)Nc1ccc(NCc2ccc(C)s2)cc1
The “hERG current change (%, negative = inhibition) at 1uM” value of the first is lower: -3.19% for the first, 7.57% for the second.

Going from Cc1c(C2Nc3ccccc3C(=O)N2O)cnn1C (stereo not shown) to O=C(C1CCN(S(=O)(=O)c2ccc3ccccc3c2)CC1)N1CCN(c2ncccn2)CC1, the “hERG current change (%, negative = inhibition) at 1uM” value falls from 6.1% to 4.33%.

First: CCOC(=O)N1CCC(NC(=O)C2CCCN(S(=O)(=O)c3ccc4c(c3)oc(=O)n4C)C2)CC1 (stereo not shown)
Second: COc1cccc(N2C(=O)Nc3ccc(Br)cc3C2(O)C(=O)NCCCOC(C)C)c1 (stereo not shown)
The “hERG current change (%, negative = inhibition) at 1uM” value of the first is lower: 11.3% for the first, 16.8% for the second.

Compared with Fc1ccc(COc2cccc(-c3n[nH]c(=S)o3)c2)cc1, O=C(Nc1ncccn1)c1cccs1 is higher in “hERG current change (%, negative = inhibition) at 1uM” value: 9.67% for the first, 14% for the second.

For CCOC(=O)CSc1nnc2c(n1)C1(C)CCC2C1(C)C (stereo not shown), the “hERG current change (%, negative = inhibition) at 1uM” value was 1.95%.
